52 compounds from article PMC12040169 (PLOS Biology, 2025) can be followed below.

This is one part of the list.

In this assay the test system is T1, C. trachomatis L2/434/Bu expressing GFP (CTL2-GFP).
T1 construct: L2/434/Bu GFP intracellular growth in HeLa cells
Also noted: species or system HeLa; C. trachomatis total inclusion area by high-content imaging, normalised to DMSO. The note with it: total inclusion area; 28.5 h, 10 µM; inhibitor. In outline:
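After bulk GFP and resorufin fluorescence reads, cells were fixed, stained with Hoechst and imaged by high-content microscopy. Inclusion area and number (GFP) stood in for chlamydial growth, nuclei count (Hoechst) for host cell viability. MICs were derived as for the bulk readout.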
Turning to `Cc1ncccc1COC(=O)N1CCCC(F)C1` (stereo not shown) [CBK200155], the “% of control remaining” value is reported as 114.016.
As for `C[C@@H]1CC(=O)CCC1NC(=O)c1ccccc1` (stereo partly shown) [CBK017832], the “% of control remaining” value is on record as 50.441.
Turning to `COC(=O)CN1C(=O)S/C(=C/c2cc(C)n(-c3ccc(S(N)(=O)=O)cc3)c2C)C1=O` [CBK265249], the “% of control remaining” value was 89.2545.
Consider `O=C1CC(C(=O)O)CN(c2cccs2)C1` (stereo not shown) [CBK021796], for which the “% of control remaining” value is 74.1315.
On to `CCOC(=O)c1sc(NCCOc2cccc(C)c2)nc1C` [CBK265574], for which the “% of control remaining” value is reported as 88.4643.
Turning to `O=C(NCCCN1CCOCC1)c1cc(Cl)ccc1[N+](=O)[O-]` [CBK265470], the “% of control remaining” value came out at 94.9863.
The result for `COC(=O)c1ccc(NC(=O)N2CCCC2c2nc(-c3ccccc3)c3ccccn23)cc1` (stereo not shown) [CBK046725] reads 123.319.
For `O=C1c2ccccc2C(=O)N1CN(Cc1ccc2c(c1)OCO2)CN1C(=O)c2ccccc2C1=O` [CBK265197], the “% of control remaining” value stood at 88.6755.
As for `CC(=O)N(C)Cc1cccc(Nc2ncnc3c2cnn3C)c1` [CBK306319], the “% of control remaining” value is given as 48.0056.
As to `Cc1cc(O)n2nc(CC(=O)NCCCn3ccnc3C(C)C)nc2n1` [CBK306876], the “% of control remaining” value is listed as 47.6278.
The result for `COc1ccc(C(C)C)cc1-c1cnc2[nH]c(=O)n([C@H](CO)C(C)C)c2n1` [CBK064962] reads 92.717; that for `CC(=O)c1ccc(-c2cc(Nc3ccc(O)cc3C)ncn2)s1` [CBK091052], 88.1804; that for `Cc1[nH]c(=O)[nH]c(=O)c1CCC(=O)N(C)CC(=O)Nc1cccc(F)c1` [CBK305703], 50.8507.
Then `CC1CN(c2cc(CO)c(F)cn2)CC2(CCOC2)O1` (stereo not shown) [CBK304772], with 50.561; and `O=C1CC(SCc2nc3ccccc3[nH]2)C(=O)N1c1ccccc1Cl` (stereo not shown) [CBK266702], with 84.3842; and `CCn1c(-c2ccc3c(c2)OCCO3)cnc1SCC(=O)c1cc(C)[nH]c1C` [CBK297880], with 73.7309.
On to `O=C(O)Cn1cc(I)c(=O)[nH]c1=O` [CBK262698], for which the “% of control remaining” value is 102.217.
In the case of `Cc1ccc(C2=N/C(=C/c3ccc(OS(=O)(=O)c4ccc(C)c([N+](=O)[O-])c4)cc3)C(=O)O2)cc1` [CBK264647], the “% of control remaining” value stood at 82.6149.
Take `NCCc1nc(-c2ccccc2)c2cnccn12` [CBK035705]: the “% of control remaining” value is listed as 81.7068.
With `COc1ccc(C2C(C(=O)Nc3ccccc3)=C(C)Nc3ncnn32)cc1` (stereo not shown) [CBK287353], the “% of control remaining” value stood at 81.2594.
For `O=C(Nc1ccc(S(=O)(=O)NCc2ccccc2)cc1)Nc1ccc2c(c1)OCO2` [CBK268186], the “% of control remaining” value is recorded as 89.1973.
`O=C(Cn1cccn1)NC(CN1CCCCC1)c1ccccc1` (stereo not shown) [CBK281726]: the “% of control remaining” value came out at 106.565.
With `NC1CCC(N(CCc2ccccc2)C(=O)Nc2ccc3c(c2)OCO3)CC1` (stereo not shown) [CBK000480C], the “% of control remaining” value was determined as 93.6993.
As to `CC(=O)NCCn1cc2c(n1)[C@H]1CN(C(=O)c3ccccc3)C[C@H]1C2` [CBK282073], the “% of control remaining” value is 87.0352.
Then `CCc1ccc(O)c(NC(=S)NC(=O)c2cccc3c(Br)cccc23)c1` [CBK264385], with 97.2927.
On to `Cc1cc(C)n(CC2CN(CC(=O)NCc3ccccn3)CCO2)n1` (stereo not shown) [CBK305344], for which the “% of control remaining” value is 106.68.
In the case of `Cc1nc(C)c(C(C)NCc2c(C(C)C)nn(C)c2N(C)C)s1` (stereo not shown) [CBK304005], the “% of control remaining” value stood at 73.5126.
For `O=C(/C=C/c1cccnc1)NCc1ccc(OC2CCNCC2)cc1` [CBK038945T], the “% of control remaining” value is 107.08.
As to `CCn1cc(C(=O)N2CCN(Cc3ccco3)C[C@@H]2C(C)C)c(C)n1` [CBK285488], the “% of control remaining” value amounted to 95.8047.
Consider `CCn1c(CN2CCn3c(nnc3C3CC3)C2)nc2c(F)cccc21` [CBK306300], for which the “% of control remaining” value is reported as 70.794.
`COc1ccc2ccccc2c1[S+]([O-])NC1CCCCC1` (stereo not shown) [CBK022400]: the “% of control remaining” value came out at 73.2358.
On to `Cc1nn(Cc2cccnc2)c(=O)n2cccc12` [CBK283848], for which the “% of control remaining” value is recorded as 102.702.
`N#Cc1c(N)nc(SCC(=O)c2cc3ccccc3oc2=O)c(C#N)c1-c1ccc(O)cc1` [CBK261269]: the “% of control remaining” value amounted to 104.566.
For `Nc1n[nH]c(SCC(=O)Nc2ccc(Br)cc2Cl)n1` [CBK267875], the “% of control remaining” value came out at 112.959.
Then `CCN(CC)C(=O)c1ccc(-n2ccnc2)c(-n2cccc2)c1` [CBK285371], with 85.0421; and `CC(C)c1ccc(NC(=O)CN2CCN(c3ccc(C(F)(F)F)cn3)CC2)cc1` [CBK086000], with 91.5184.
Regarding `COc1ncc(-c2nccnc2OC)c(OC)n1` [CBK106744], the “% of control remaining” value was determined as 102.614.
With `NC(=O)CNC(=O)C1CCCN(c2nc3c(-c4ccccc4)csc3c(=O)[nH]2)C1` (stereo not shown) [CBK215487], the “% of control remaining” value is 111.646.
Then `CCOc1ccc(NC(=O)N(CCO)Cc2nccn2C)cc1C#N` [CBK307634], with 45.9224.
For the compound `Cc1nc(-c2ccccc2)sc1CNC(=O)C(F)(F)F` [CBK092363], the “% of control remaining” value was 117.692.
Then `Brc1cnc(-n2cnc3ccccc32)nc1` [CBK288546], with 55.2197.
Consider `O=C(CN1CCC(c2ccc(F)cc2)CC1)N1CCOCC1` [CBK283683], for which the “% of control remaining” value is on record as 89.8454.
With `CNCCC(Sc1ccccn1)c1ccccc1` (stereo not shown) [CBK021724C], the “% of control remaining” value is given as 117.987.
The result for `Cc1ccccc1CNCCNCCO` [CBK278293C] reads 93.2146; that for `Cc1ncsc1C(=O)N1CCCC(n2cnc3cc(F)ccc32)C1` (stereo not shown) [CBK284470], 99.5762; that for `Cn1c2c(c(=O)[nH]c1=O)C1(O)C(=O)c3ccccc3C1(O)N2` (stereo not shown) [CBK261683], 84.4807.
For the compound `O=C(C1CC1)N1CCC[C@H]1Cn1nc(-c2ccc(F)cc2)ccc1=O` [CBK284252], the “% of control remaining” value worked out at 90.1.
`O=C(NCCN1CCOCC1)c1ccc2nccnc2c1` [CBK268806]: the “% of control remaining” value was 74.9188.
In the case of `O=C(c1ccco1)N1CCC(n2c(=O)oc3ccc(Cl)cc32)CC1` [CBK284343], the “% of control remaining” value is on record as 70.876.
For the compound `COc1cnc(-c2ccsc2)c(NC(=O)CC(C)C)n1` [CBK145292], the “% of control remaining” value is reported as 109.607.
The result for `Cc1cc(NC(=O)CSc2nnc3ccc(-c4ccccc4)nn23)no1` [CBK287679] reads 71.6747; that for `Cc1ccc(SCCNS(=O)(=O)c2ccc(C)cc2)cc1` [CBK263564], 90.4251.
